Measured values taken from the BET-seq Pho4 binding data (Le et al. 2018).
This is one part of the list. The energies were worked out here from pooled read counts, against the library average; single values are noisy.

Each sequence was assayed against T1, Pho4 (S. cerevisiae) (UniProt P07270) (assay: relative binding free energy (BET-seq); higher = weaker binding). Settings: reference: library average.
T1 sequence: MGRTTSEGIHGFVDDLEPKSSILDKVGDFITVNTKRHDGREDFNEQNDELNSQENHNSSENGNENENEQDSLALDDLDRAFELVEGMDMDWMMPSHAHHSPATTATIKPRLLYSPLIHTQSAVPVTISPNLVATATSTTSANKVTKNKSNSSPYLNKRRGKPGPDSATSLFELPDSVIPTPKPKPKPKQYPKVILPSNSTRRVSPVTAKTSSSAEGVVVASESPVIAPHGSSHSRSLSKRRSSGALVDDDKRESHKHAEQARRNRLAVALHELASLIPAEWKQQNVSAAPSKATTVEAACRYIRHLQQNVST

Row | Sequence | relative binding free energy [kcal/mol]
1 | TGTGGCACGTGGAGTA | -0.11
2 | CTATGCACGTGTTGTA | -0.09
3 | TAGTGCACGTGATAAT | 0.14
4 | GAGTGCACGTGTCTTG | 0.06
5 | TATGACACGTGGCTGT | -0.09
6 | GGGGACACGTGTCGGG | 0.11
7 | GTCTGCACGTGCTGGT | -0.01
8 | GGGTGCACGTGAGGCT | 0.15
9 | AATGTCACGTGGGGAT | -0.01
10 | AGAGGCACGTGGAGGC | -0.13
11 | TAAATCACGTGTTTTT | 0.09
12 | TTCTACACGTGGAGTT | 0.32
13 | TTCGGCACGTGGTAAG | -0.1
14 | TGTGGCACGTGGACGG | -0.08
15 | ACTGACACGTGGTTGG | -0.01
16 | CGATGCACGTGTCGGG | -0.04
17 | TGTCGCACGTGGTAGA | -0.16
18 | GGGGGCACGTGATAAC | 0.12
19 | GTAGGCACGTGGGAGC | -0.13
20 | TGGCACACGTGGGAAG | -0.03
21 | ATATGCACGTGATGAG | 0.11
22 | CTCGGCACGTGTAGGC | 0.13
23 | AGCGGCACGTGGGGCG | -0.3
24 | GGCGGCACGTGCGGTA | -0.07
25 | TCGATCACGTGTAAGG | 0.15

Row | Sequence | relative binding free energy [kcal/mol]
26 | TATGACACGTGGCGAG | -0.01
27 | TCTTGCACGTGTTATG | -0.15
28 | GGCATCACGTGCGGTG | 0.06
29 | AGTGGCACGTGGGGGT | -0.26
30 | AGGGACACGTGTGCAG | -0.02
31 | TTGGGCACGTGGTTTC | -0.12
32 | ATGAGCACGTGTGGTT | 0.07
33 | TGCGGCACGTGTTTTG | -0.08
34 | GTTGACACGTGCTTTT | 0.03
35 | CTGGGCACGTGGTTTT | -0.05
36 | TGCGGCACGTGTAGGC | -0.13
37 | TTATTCACGTGGAGGT | 0.24
38 | AAAGCCACGTGGGTTT | -0.05
39 | GCTAGCACGTGGTGTT | -0.06
40 | TTAGTCACGTGGTAAA | 0.14
41 | GGCAGCACGTGGGGAG | -0.15
42 | GGGTACACGTGGACTT | 0.07
43 | GAGGTCACGTGTTTCA | 0.35
44 | TTTCTCACGTGGTTAT | 0.22
45 | AGTTTCACGTGTAACG | 0.23
46 | GATTTCACGTGTCAGT | 0.28
47 | CGATGCACGTGGGTAG | -0.2
48 | TAGTTCACGTGCTGGG | 0.23
49 | TTTGGCACGTGCTGTC | -0.1
50 | AGAGTCACGTGAAAGT | 0.36

Row | Sequence | relative binding free energy [kcal/mol]
51 | TTATTCACGTGTCTAG | 0.19
52 | TCGAACACGTGGGGGA | -0.06
53 | TTTTACACGTGTTAAA | 0.17
54 | TAGGACACGTGGATGA | -0.03
55 | AGTGGCACGTGCCTGT | -0.19
56 | TTGTACACGTGTGGTA | 0.13
57 | GTAGCCACGTGTTGGG | 0.01
58 | AAACACACGTGTGGGG | 0.04
59 | GGCTGCACGTGGGGTA | -0.18
60 | CGGGACACGTGTTTTA | 0.31
61 | ATATTCACGTGTTTGC | 0.23
62 | GGGGCCACGTGGACGG | -0.18
63 | TGTTTCACGTGTAGCT | 0.27
64 | TAGGGCACGTGGAGAT | 0.06
65 | TAGTACACGTGCAGTT | 0.09
66 | GACATCACGTGTTTTG | 0.16
67 | GACGTCACGTGTCGGG | 0.24
68 | TTTGGCACGTGTTAAC | -0.05
69 | TATGTCACGTGGTAGC | 0.12
70 | ACTGGCACGTGCTTGT | -0.11
71 | TCTTTCACGTGGTATG | 0.29
72 | GGTAACACGTGGGTAG | -0.04
73 | TGGTGCACGTGGATCC | 0.11
74 | ATATACACGTGGGGTA | -0.17
75 | TTCTGCACGTGATGGG | 0.12

Row | Sequence | relative binding free energy [kcal/mol]
76 | TCGGGCACGTGAGTAG | 0.16
77 | AACGGCACGTGGTGCG | -0.14
78 | AGAATCACGTGCGGTG | 0.26
79 | AGGTGCACGTGGCTAT | -0.25
80 | AGTGTCACGTGTCATA | -0.06
81 | AGTAGCACGTGTTGGG | -0.03
82 | ATTGTCACGTGTTCTT | 0.06
83 | GTATTCACGTGTGACT | 0.39
84 | TGGGGCACGTGTGTGA | -0.15
85 | TGCGGCACGTGGGGCA | -0.19
86 | GGGTCCACGTGGAGTA | -0.07
87 | GCTATCACGTGGTGTG | 0.06
88 | TAATGCACGTGGCGTT | -0.13
89 | TATAGCACGTGATCGT | 0
90 | ATGCGCACGTGGTTAT | -0.2
91 | AATGTCACGTGGGTGT | 0
92 | CGCGTCACGTGCGGGG | 0
93 | GAAGACACGTGGGGCT | -0.03
94 | TATGCCACGTGTTAGT | 0.02
95 | TAGTTCACGTGTTTGA | 0.29
96 | GTTTGCACGTGGCTGA | 0.1
97 | ACTGACACGTGAGGTG | 0.23
98 | TTAAACACGTGTAGGA | 0.06
99 | GTTATCACGTGGAAAT | 0.31
100 | ACATGCACGTGCGGTG | -0.1

Row | Sequence | relative binding free energy [kcal/mol]
101 | TGGCTCACGTGGGGTG | -0.04
102 | TGGTTCACGTGATTTA | 0.44
103 | ATTCGCACGTGTGTAT | -0.04
104 | CTGGTCACGTGGAGTG | 0.04
105 | TTGGGCACGTGAGAGT | 0.12
106 | CAGTGCACGTGTGAGT | 0.01
107 | AATGGCACGTGGTTTA | -0.11
108 | ATGTTCACGTGGGATG | 0.19
109 | GTTAGCACGTGGCTAG | -0.09
110 | GTCTGCACGTGGGGGG | -0.14
111 | AATGTCACGTGTCTGG | 0.2
112 | GCATACACGTGTGTGT | 0.14
113 | CGGGTCACGTGGGTCT | -0.04
114 | GTCAGCACGTGGTGTT | -0.03
115 | TATTGCACGTGAGCTT | 0.23
116 | TCGTTCACGTGAATTT | 0.39
117 | TTGCACACGTGGGATG | -0.13
118 | GTTTACACGTGGGTAT | -0.09
119 | ATATACACGTGGTAAT | -0.11
120 | AGTGACACGTGTTTAC | 0.18
121 | TGGTACACGTGGGCTG | -0.12
122 | ATTTTCACGTGGTTAG | 0.23
123 | TAGTACACGTGGTTTT | 0.02
124 | CGGTCCACGTGAGTTG | 0.36
125 | ATGTACACGTGGTAGA | -0.06

Row | Sequence | relative binding free energy [kcal/mol]
126 | GTGAGCACGTGGGAGA | -0.08
127 | TTAGTCACGTGGCGTG | -0.12
128 | ATATACACGTGAAAGG | 0.25
129 | CGCGTCACGTGAGGAG | 0.11
130 | GTTCGCACGTGTATTT | 0.02
131 | TATTGCACGTGGATAA | -0.15
132 | TTGTACACGTGAGCTG | 0.19
133 | CTTGTCACGTGTTAAA | 0.11
134 | GGGGTCACGTGGGTTT | 0.13
135 | GGATGCACGTGCGAGG | 0.11
136 | TGTTACACGTGGGATT | 0.06
137 | GATCTCACGTGGTTTG | 0.24
138 | AGATACACGTGTGTGT | 0.25
139 | TGGAACACGTGTTTTT | 0.09
140 | AGTAGCACGTGATCGG | 0
141 | TATGGCACGTGAGACT | 0.17
142 | AAGGACACGTGAGATG | 0.27
143 | TTACGCACGTGTGGCA | -0.02
144 | CATCTCACGTGTGTTT | 0.18
145 | GGTTTCACGTGTCTGA | 0.4
146 | TGGGGCACGTGACGTG | 0
